Laboratory results: US4479951A, “1.4;3.6-Dianhydrohexitol nitrates substituted by purine bases, processes for their preparation and pharmaceutical compositions” (Dr. Willmar Schwabe GmbH & Co., priority 1980, dated 1984)

Tested on: isolated guinea pig hearts
Experiment: coronary flowthrough-increasing effectiveness, isolated hearts according to Langendorff
Conditions: Cavia porcellus
[1] = read-out: Flowthrough, percentage change in comparison with the initial values
[2] = read-out: Frequency, percentage change in comparison with the initial values
[3] = read-out: Inotropism, percentage change in comparison with the initial values

SMILES	activation at 25 µg/mL [1] [%]	activation at 25 µg/mL [2] [%]	activation at 25 µg/mL [3] [%]
Nc1ncnc2c1ncn2[C@H]1CO[C@H]2[C@@H]1OC[C@@H]2O[N+](=O)[O-] [1c/2c, 5-(9-Adenyl)-5-desoxy-1.4;3.6-dianhydro-L-iditol 2-nitrate]	92.1	4.92	-8.97
CNc1ncnc2c1ncn2[C@H]1CO[C@H]2[C@@H]1OC[C@@H]2O[N+](=O)[O-] [Example 3c, 5-(6-Methylaminopurin-9-yl)-5-desoxy-1.4;3.6-dianhydro-L-iditol 2-nitrate]	39.9	0.6	-4.74
CN(C)c1ncnc2c1ncn2[C@H]1CO[C@H]2[C@@H]1OC[C@@H]2O[N+](=O)[O-] [Example 4b, 5-(6-Dimethylaminopurin-9yl)-5-desoxy-1.4;3.6-dianhydro-L-iditol 2-nitrate]	103	-4.92	-7.49
CCNc1ncnc2c1ncn2[C@H]1CO[C@H]2[C@@H]1OC[C@@H]2O[N+](=O)[O-] [Example 5b, 5-(6-Ethylaminopurin-9-yl)-5-desoxy-1.4;3.6-dianhydro-L-iditol 2-nitrate]	67	-1.54	-6.1
O=[N+]([O-])O[C@H]1CO[C@H]2[C@@H]1OC[C@@H]2n1cnc2c(N3CCCC3)ncnc21 [Example 6b, 5-(6-Pyrrolidinopurin-9-yl)-5-desoxy-1.4;3.6-dianhydro-L-iditol 2-nitrate]	23.9	0.15	-13
CN1CCN(c2ncnc3c2ncn3[C@H]2CO[C@H]3[C@@H]2OC[C@@H]3O[N+](=O)[O-])CC1 [Example 9b, 5-[6-(4-Methylpiperazino)-purin-9-yl]-5-desoxy-1.4;3.6-dianhydro-L-iditol 2-nitrate]	35.9	-7.58	-5.15
Cn1c(=O)c2c(ncn2[C@H]2CO[C@H]3[C@@H]2OC[C@@H]3O[N+](=O)[O-])n(C)c1=O [Example 12b, 5-(7-Theophyllinyl)-5-desoxy-1.4;3.6-dianhydro-L-iditol 2-nitrate]	11.4	7.84	0
O=[N+]([O-])O[C@@H]1CO[C@H]2[C@@H]1OC[C@@H]2O [ISMN, 1.4;3.6-dianhydro-D-glucitol 2-nitrate, reference compound]	–	-0.51	-2.67

Like-named read-outs stand apart in the source and are kept apart here.
